In ChEMBL document CHEMBL4888484, “Replenishing the malaria drug discovery pipeline: Screening and hit evaluation of the MMV Hit Generation Library 1 (HGL1) against asexual blood stage Plasmodium falciparum ,using a nano luciferase reporter read-out” (2022):
Out of some 150,000 compounds screened, about 540 (0.36%) showed an effect of 50% or more. The list shows a part of the results.

The compounds below were run on Plasmodium falciparum (assay: Primary screen in NF54 nanoGlo assay, in single point, at 2uM, 72h; a lower Z score goes with more inhibition). Details: timepoint 72 hour.
Assay type: functional, Erythrocyte

Going from `Cc1cc(O)c(OCC(=O)/N=c2\[nH]c(C)c(C)s2)cn1` to `Cc1n[nH]c(C)c1CCn1ccnc1-c1c(F)ccc(Cl)c1F`, the “% Inhibition” value rises from -12% to -1%.

Compared with `COc1cccc(CNC(=NC[C@H]2CCCO2)NC2CC2)c1`, `COCCN1CCC(c2n[nH]c(CNC(=O)OCc3ccccc3)n2)CC1` is higher in “% Inhibition” value: -10% for the first, -5% for the second.

First: Cc1cnccc1NCCNC1CCN(c2ccc(Cl)cc2)CC1
Second: O[C@H]1Cc2ccccc2C12CCN(CCn1cc(Cl)cn1)CC2
The “% Inhibition” value of the first is higher: 99% for the first, 7% for the second.

First: COC(=O)Nc1cccc(NCCCS(=O)(=O)c2ccc(C)cc2)c1
Second: COc1ccccc1NS(=O)(=O)c1cc(NC(=O)c2ccc(C)c(S(=O)(=O)Nc3cccc(C)c3)c2)ccc1Cl
The “% Inhibition” value of the first is higher: 14% for the first, -8% for the second.

Compared with `Cc1cc(NC2CCCC3OCCC23)nc(C2CC2)n1` (stereo not drawn), `Cc1cc(N2CCC3(CC2)C[C@H](c2ccccc2)CN(C2CC2)C3)nc(N)n1` is lower in “% Inhibition” value: 18% for the first, -17% for the second.

Going from `Cc1nc(-c2ccc(-c3nc4c([nH]3)CCCNC4=O)cc2)no1` to `Cc1ccc(-c2csc(Cc3nc(-c4ccc(C)cc4)no3)n2)cc1`, the “% Inhibition” value falls from 4% to -15%.

Going from `CCC1=NO[C@@H](CNC(=O)c2ccc(-c3ccc(NCCO)nn3)cc2)C1` to `Nc1nc(CCNC(=O)c2conc2-c2ccccc2)n[nH]1`, the “% Inhibition” value falls from -3% to -13%.

Going from `O=C(NCC(=O)N1CCCC1)C1CCCC1` to `CC(=O)N1CCN(C(=O)CN2CCCC[C@H]2c2cc(C)n[nH]2)CC1`, the “% Inhibition” value rises from -13% to -10%.

Going from `CC(C)c1cccc2c1CCN(C(=O)c1cnccn1)C2` to `CC(C)Cc1cc(C(=O)N2CCc3[nH][nH]c(=O)c3CC2)no1`, the “% Inhibition” value falls from 36% to -3%.

First: CC(C)(C)n1cc(CN2c3ccccc3C[C@@H]2CO)cn1
Second: Cc1c([C@@H]2CC(=O)Nc3c2cnn3Cc2ccccc2Cl)cnn1C
The “% Inhibition” value of the first is lower: -7% for the first, -4% for the second.

Going from `CN(Cc1ccccn1)C(=O)c1cc(-c2ccc(Cl)c(Cl)c2)ns1` to `Cc1noc(-c2ccc3c(c2)OCO3)c1C(=O)NCc1cccc(Cl)c1`, the “% Inhibition” value falls from 0% to -14%.

Going from `CCOc1cc2cc(c1)C(=O)N(C)CC(=O)N[C@@H]1CN(Cc3ccc(C(=O)N(C)C)o3)CC[C@@H]1OCc1cccc(c1)O2` to `Cc1ccc(CN2C[C@]34C=C[C@H](O3)C(C(=O)N3CCN(C)C(=O)C3)C4C2=O)cc1C` (stereo partly drawn), the “% Inhibition” value falls from 0% to -7%.

Compared with `C[C@@H](C(=O)NCc1ccc(O)cc1O)N(C)C`, `C[C@@H](CC(C)(C)O)OC(=O)c1ccnc(N(C)C)c1` is lower in “% Inhibition” value: 0% for the first, -11% for the second.

Compared with `CC(C)Oc1ccccc1[C@H](C)NCc1nc(C2CC2)nn1C`, `CCCc1nc(N[C@H](C)c2cccc(OC)c2)c2cnn(C)c2n1` is lower in “% Inhibition” value: 7% for the first, 1% for the second.

Compared with `CCn1c(N)c(-c2nc3ccccc3[nH]2)c(=O)c2ccccc21`, `O=C(Nc1ccccc1)C(=O)Nc1cccc2[nH]ccc12` is lower in “% Inhibition” value: -1% for the first, -9% for the second.

Compared with `CCc1ncc(NC(=O)[C@@H](C)COC)cn1`, `CN(CCc1nccs1)Cc1cn[nH]c1` is higher in “% Inhibition” value: -9% for the first, -6% for the second.

First: CN1CCN(c2nc(N3CCCCC3)nc3c2CN(S(=O)(=O)c2ccccc2)CC3)CC1
Second: CN1CCN(c2ccc(N3CCN(C)CC3)nn2)CC1
The “% Inhibition” value of the first is higher: 8% for the first, 3% for the second.

Going from `C[C@H](O)c1nnnn1CC(=O)Nc1cccc(S(=O)(=O)N2CCCC2)c1` to `O=C(Nc1cncc(Cl)c1)N1CCC2(CC1)OCc1ccccc12`, the “% Inhibition” value falls from 3% to -3%.

First: Cc1nc(-c2csc(S(=O)(=O)Nc3cccc(OC(F)(F)F)c3)c2)sc1C
Second: COc1cc2c(cc1OC)C(Nc1ccccc1)=NC(C)(C)C2
The “% Inhibition” value of the first is lower: -14% for the first, -2% for the second.

Compared with `CCC1=NO[C@@H](CN2CCc3nc(C)[nH]c3C2)C1`, `COc1ccnc(CN2CCc3[nH]nc(-c4ccc(-c5ccccc5)cc4)c3C2)c1` is lower in “% Inhibition” value: 8% for the first, 1% for the second.

First: CN(CC(F)(F)F)C(=O)CN1CC(C)(C)[C@H]1c1ccncc1
Second: CN(C(=O)c1ccc(OCC(F)(F)F)nc1)C1(C#N)CCC1
The “% Inhibition” value of the first is lower: 2% for the first, 38% for the second.

Compared with `CCO[C@H]1C[C@@H](O)C12CCN(C(=O)C1(C#N)CCOCC1)CC2`, `O=C(NC1CCC2CCCC2C1)N1CCOC2(CNC2)C1` (stereo not drawn) is higher in “% Inhibition” value: -4% for the first, 26% for the second.

Compared with `O=C(Nc1nc2cc3c(cc2s1)OCCO3)[C@H]1CCS(=O)(=O)C1`, `CN([C@H]1CCc2ccccc21)S(=O)(=O)c1ccc2c(c1)CCC2` is higher in “% Inhibition” value: -4% for the first, 36% for the second.

Going from `O=C(Nc1ccccn1)N[C@@H](CCO)C1CCCCC1` to `Cn1nccc1CNC(=O)NCC1CC12CCCc1ccccc12` (stereo not drawn), the “% Inhibition” value falls from 4% to 3%.

Compared with `Cc1c(CNC(N)=NCc2ccco2)oc2ccc(F)cc12`, `Cc1ccc(NCc2cc(Cl)cc3c2OCOC3)c(Br)c1` is higher in “% Inhibition” value: -12% for the first, -1% for the second.

Going from `O=C(CN(Cc1ccccc1)C(=O)c1ccccc1Cl)Nc1nc(-c2ccccc2)cn1-c1ccc(F)cc1` to `CC1(C)CC[C@H](NC(=O)CCCN2C(=O)CNC2=O)c2ccccc21`, the “% Inhibition” value falls from 10% to -1%.

Compared with `Cc1ccc(C)c(S(=O)(=O)NC[C@@H]2C[C@H](F)CN2)c1`, `CCOC(=O)N1CCN([C@H]2CCCN(C3CCN(Cc4ccco4)CC3)C2)CC1` is lower in “% Inhibition” value: -9% for the first, -17% for the second.

Going from `Cc1cc(O)c(OCC(=O)/N=c2\[nH]c(C)c(C)s2)cn1` to `Cc1n[nH]c(C)c1CCn1ccnc1-c1c(F)ccc(Cl)c1F`, the Z score falls from 1.55 to 0.11.

Compared with `COc1cccc(CNC(=NC[C@H]2CCCO2)NC2CC2)c1`, `COCCN1CCC(c2n[nH]c(CNC(=O)OCc3ccccc3)n2)CC1` is lower in Z score: 1.85 for the first, 0.69 for the second.

Compared with `Cc1cnccc1NCCNC1CCN(c2ccc(Cl)cc2)CC1`, `O[C@H]1Cc2ccccc2C12CCN(CCn1cc(Cl)cn1)CC2` is higher in Z score: -17.94 for the first, -0.62 for the second.

First: COC(=O)Nc1cccc(NCCCS(=O)(=O)c2ccc(C)cc2)c1
Second: COc1ccccc1NS(=O)(=O)c1cc(NC(=O)c2ccc(C)c(S(=O)(=O)Nc3cccc(C)c3)c2)ccc1Cl
The Z score of the first is lower: -1.53 for the first, 1.27 for the second.

Compared with `Cc1cc(NC2CCCC3OCCC23)nc(C2CC2)n1` (stereo not drawn), `Cc1cc(N2CCC3(CC2)C[C@H](c2ccccc2)CN(C2CC2)C3)nc(N)n1` is higher in Z score: -2.05 for the first, 1.78 for the second.

First: Cc1nc(-c2ccc(-c3nc4c([nH]3)CCCNC4=O)cc2)no1
Second: Cc1ccc(-c2csc(Cc3nc(-c4ccc(C)cc4)no3)n2)cc1
The Z score of the first is lower: -0.4 for the first, 1.45 for the second.

Going from `CCC1=NO[C@@H](CNC(=O)c2ccc(-c3ccc(NCCO)nn3)cc2)C1` to `Nc1nc(CCNC(=O)c2conc2-c2ccccc2)n[nH]1`, the Z score rises from 0.37 to 1.68.

Compared with `O=C(NCC(=O)N1CCCC1)C1CCCC1`, `CC(=O)N1CCN(C(=O)CN2CCCC[C@H]2c2cc(C)n[nH]2)CC1` is lower in Z score: 1.14 for the first, 0.99 for the second.

Compared with `CC(C)c1cccc2c1CCN(C(=O)c1cnccn1)C2`, `CC(C)Cc1cc(C(=O)N2CCc3[nH][nH]c(=O)c3CC2)no1` is higher in Z score: -3.63 for the first, 0.57 for the second.

First: CC(C)(C)n1cc(CN2c3ccccc3C[C@@H]2CO)cn1
Second: Cc1c([C@@H]2CC(=O)Nc3c2cnn3Cc2ccccc2Cl)cnn1C
The Z score of the first is higher: 1.28 for the first, 0.62 for the second.

First: CN(Cc1ccccn1)C(=O)c1cc(-c2ccc(Cl)c(Cl)c2)ns1
Second: Cc1noc(-c2ccc3c(c2)OCO3)c1C(=O)NCc1cccc(Cl)c1
The Z score of the first is lower: 0.02 for the first, 2.25 for the second.

Going from `CCOc1cc2cc(c1)C(=O)N(C)CC(=O)N[C@@H]1CN(Cc3ccc(C(=O)N(C)C)o3)CC[C@@H]1OCc1cccc(c1)O2` to `Cc1ccc(CN2C[C@]34C=C[C@H](O3)C(C(=O)N3CCN(C)C(=O)C3)C4C2=O)cc1C` (stereo partly drawn), the Z score rises from 0.01 to 0.76.

Compared with `C[C@@H](C(=O)NCc1ccc(O)cc1O)N(C)C`, `C[C@@H](CC(C)(C)O)OC(=O)c1ccnc(N(C)C)c1` is higher in Z score: 0.03 for the first, 1.65 for the second.

First: CC(C)Oc1ccccc1[C@H](C)NCc1nc(C2CC2)nn1C
Second: CCCc1nc(N[C@H](C)c2cccc(OC)c2)c2cnn(C)c2n1
The Z score of the first is lower: -1.37 for the first, -0.1 for the second.

First: CCn1c(N)c(-c2nc3ccccc3[nH]2)c(=O)c2ccccc21
Second: O=C(Nc1ccccc1)C(=O)Nc1cccc2[nH]ccc12
The Z score of the first is lower: 0.15 for the first, 0.93 for the second.

Going from `CCc1ncc(NC(=O)[C@@H](C)COC)cn1` to `CN(CCc1nccs1)Cc1cn[nH]c1`, the Z score falls from 0.91 to 0.73.

Compared with `CN1CCN(c2nc(N3CCCCC3)nc3c2CN(S(=O)(=O)c2ccccc2)CC3)CC1`, `CN1CCN(c2ccc(N3CCN(C)CC3)nn2)CC1` is higher in Z score: -1.05 for the first, -0.44 for the second.

First: C[C@H](O)c1nnnn1CC(=O)Nc1cccc(S(=O)(=O)N2CCCC2)c1
Second: O=C(Nc1cncc(Cl)c1)N1CCC2(CC1)OCc1ccccc12
The Z score of the first is lower: -0.37 for the first, 0.55 for the second.

Compared with `Cc1nc(-c2csc(S(=O)(=O)Nc3cccc(OC(F)(F)F)c3)c2)sc1C`, `COc1cc2c(cc1OC)C(Nc1ccccc1)=NC(C)(C)C2` is lower in Z score: 2.06 for the first, 0.38 for the second.

Compared with `CCC1=NO[C@@H](CN2CCc3nc(C)[nH]c3C2)C1`, `COc1ccnc(CN2CCc3[nH]nc(-c4ccc(-c5ccccc5)cc4)c3C2)c1` is higher in Z score: -1.25 for the first, -0.17 for the second.

Compared with `CN(CC(F)(F)F)C(=O)CN1CC(C)(C)[C@H]1c1ccncc1`, `CN(C(=O)c1ccc(OCC(F)(F)F)nc1)C1(C#N)CCC1` is lower in Z score: -0.25 for the first, -5.16 for the second.

First: CCO[C@H]1C[C@@H](O)C12CCN(C(=O)C1(C#N)CCOCC1)CC2
Second: O=C(NC1CCC2CCCC2C1)N1CCOC2(CNC2)C1 (stereo not drawn)
The Z score of the first is higher: 0.5 for the first, -3.29 for the second.

First: O=C(Nc1nc2cc3c(cc2s1)OCCO3)[C@H]1CCS(=O)(=O)C1
Second: CN([C@H]1CCc2ccccc21)S(=O)(=O)c1ccc2c(c1)CCC2
The Z score of the first is higher: 0.62 for the first, -0.76 for the second.

Going from `O=C(Nc1ccccn1)N[C@@H](CCO)C1CCCCC1` to `Cn1nccc1CNC(=O)NCC1CC12CCCc1ccccc12` (stereo not drawn), the Z score rises from -0.58 to -0.45.

First: Cc1c(CNC(N)=NCc2ccco2)oc2ccc(F)cc12
Second: Cc1ccc(NCc2cc(Cl)cc3c2OCOC3)c(Br)c1
The Z score of the first is higher: 1.24 for the first, 0.17 for the second.

First: O=C(CN(Cc1ccccc1)C(=O)c1ccccc1Cl)Nc1nc(-c2ccccc2)cn1-c1ccc(F)cc1
Second: CC1(C)CC[C@H](NC(=O)CCCN2C(=O)CNC2=O)c2ccccc21
The Z score of the first is lower: -0.97 for the first, 0.13 for the second.

Compared with `Cc1ccc(C)c(S(=O)(=O)NC[C@@H]2C[C@H](F)CN2)c1`, `CCOC(=O)N1CCN([C@H]2CCCN(C3CCN(Cc4ccco4)CC3)C2)CC1` is lower in Z score: 1.52 for the first, 1.48 for the second.
